Over roughly 33,000 sequences, “E-score (-0.5 to 0.5)” has its median near -0.017; the highest 2% begin near 0.3. The list shows a part of the results.
These sequences were tested against T1, Sut1 (UniProt P53032) (assay: PBM E-score (8-mer binding enrichment) (E-score (-0.5 to 0.5)); higher = stronger / more preferred TF binding; most listed sequences are background and not binding sites). Conditions: protein concentration: 200 nM; construct: GST-full length.
T1 sequence: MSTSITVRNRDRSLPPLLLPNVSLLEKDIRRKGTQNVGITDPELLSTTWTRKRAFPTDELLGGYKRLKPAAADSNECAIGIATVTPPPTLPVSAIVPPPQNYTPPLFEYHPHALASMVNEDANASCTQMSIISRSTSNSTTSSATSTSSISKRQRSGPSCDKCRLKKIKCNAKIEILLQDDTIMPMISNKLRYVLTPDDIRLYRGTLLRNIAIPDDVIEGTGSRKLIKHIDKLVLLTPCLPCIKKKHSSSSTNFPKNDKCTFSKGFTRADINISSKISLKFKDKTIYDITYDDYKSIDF
In short: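 Full-length yeast transcription factors or their DNA-binding domains, GST-tagged and expressed with PURExpress, were applied at about 100-200 nM to universal all-10-mer Agilent arrays. These arrays had been made double-stranded by primer extension on fresh or once-stripped slides. Detection used fluorescent anti-GST, normalisation used masliner, and E-scores for ungapped eight-base words pooled with reverse complements came from the Universal PBM Analysis Suite.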
For AATTGAGG, the “PBM E-score” value was -0.0114.
For ATATATCA, the “PBM E-score” value was 0.105.
ACCGCCTC was tested, and the “PBM E-score” value was -0.244.
With CTATTCAG the “PBM E-score” value was 0.0165.
ACAGATCT was tested, and the “PBM E-score” value was 0.0682.
With AAGGTCGC the “PBM E-score” value was 0.041.
For ACGGGACA, the “PBM E-score” value was -0.188.
CAGATTTA was tested, and the “PBM E-score” value was 0.189.
With AAGGCAAC the “PBM E-score” value was -0.0594.
AATCACCC was tested, and the “PBM E-score” value was 0.0421.
GCTGTAAC was tested, and the “PBM E-score” value was 0.0343.
With AGAGGGGC the “PBM E-score” value was -0.22.
For AAAGATAC, the “PBM E-score” value was 0.118.
In the case of GCTAGTCA, the “PBM E-score” value is reported as -0.115.
AGCGACTC was tested, and the “PBM E-score” value was -0.0899.
GTGGTGTA was tested, and the “PBM E-score” value was 0.0594.
For AATAAATA, the “PBM E-score” value was 0.374.
For GGTGAAAA, the “PBM E-score” value was 0.128.
CGCAGAGA was tested, and the “PBM E-score” value was -0.137.
With TGAGTTAA the “PBM E-score” value was -0.00085.
In the case of AATAAAGG, the “PBM E-score” value is reported as -0.0466.
With AGCTCCTG the “PBM E-score” value was -0.238.
AGAAGCCG was tested, and the “PBM E-score” value was -0.0155.
In the case of AGGGCACC, the “PBM E-score” value is reported as -0.273.
With CCCAAGAG the “PBM E-score” value was -0.275.
With GATCTCCC the “PBM E-score” value was -0.249.
ATGCAGTC was tested, and the “PBM E-score” value was -0.153.
For ACAACAAT, the “PBM E-score” value was 0.139.
In the case of AGCTATTC, the “PBM E-score” value is reported as -0.0453.
For ACTTGGCT, the “PBM E-score” value was -0.0968.
For CACCCGAG, the “PBM E-score” value was -0.139.
In the case of CTAACAGA, the “PBM E-score” value is reported as 0.0721.
For GGCGCTCA, the “PBM E-score” value was -0.175.
AGAGCATC was tested, and the “PBM E-score” value was -0.0328.
In the case of GGCGGCGA, the “PBM E-score” value is reported as 0.0217.
GTACAATA was tested, and the “PBM E-score” value was 0.0857.
For TACGGCGA, the “PBM E-score” value was 0.0961.
For CCTATAAC, the “PBM E-score” value was 0.00269.
CCGAGTAC was tested, and the “PBM E-score” value was -0.0417.
For CAGACCTC, the “PBM E-score” value was -0.244.
ACTCCCTG was tested, and the “PBM E-score” value was -0.173.
GGGGGCAA was tested, and the “PBM E-score” value was -0.211.
In the case of ATATATCG, the “PBM E-score” value is reported as 0.119.
With AAGTCGTA the “PBM E-score” value was 0.0802.
For AGTCAACA, the “PBM E-score” value was 0.13.
With CAGGGCAA the “PBM E-score” value was -0.137.
For AAAAGTCT, the “PBM E-score” value was 0.102.
AACGTAAC was tested, and the “PBM E-score” value was 0.105.
CATCAAGA was tested, and the “PBM E-score” value was 0.0927.
For TGAATACA, the “PBM E-score” value was 0.241.
With AGCGACAG the “PBM E-score” value was -0.133.
With AGCATGGA the “PBM E-score” value was -0.262.
CAAAATAG was tested, and the “PBM E-score” value was 0.0437.
GAGTGGAA was tested, and the “PBM E-score” value was 0.0974.
AGGGCCAA was tested, and the “PBM E-score” value was -0.327.
GCTATGAC was tested, and the “PBM E-score” value was -0.0446.
With AGCCAATC the “PBM E-score” value was -0.0438.
ACGTCAGC was tested, and the “PBM E-score” value was -0.226.
CCGTCACG was tested, and the “PBM E-score” value was -0.0407.
TCCGAGCA was tested, and the “PBM E-score” value was 0.307.
In the case of GAAGGCAA, the “PBM E-score” value is reported as -0.0791.
In the case of AAGATATG, the “PBM E-score” value is reported as 0.167.
ACCTAGCA was tested, and the “PBM E-score” value was -0.0328.
CCAAAGGC was tested, and the “PBM E-score” value was -0.187.
CGTAGTAA was tested, and the “PBM E-score” value was 0.0634.
In the case of ACAGACGA, the “PBM E-score” value is reported as -0.0205.
For AATGCGAT, the “PBM E-score” value was -0.0455.
AATCCAGG was tested, and the “PBM E-score” value was -0.127.
For CACGTGAG, the “PBM E-score” value was -0.203.
For CCGCAAAG, the “PBM E-score” value was 0.0675.
In the case of GCCCGATA, the “PBM E-score” value is reported as -0.259.
ACGGTTTC was tested, and the “PBM E-score” value was 0.0519.
For ACGTCTCA, the “PBM E-score” value was -0.0462.
For GCACATAC, the “PBM E-score” value was -0.243.
With CTGGTCGA the “PBM E-score” value was -0.278.
With AATTCGAA the “PBM E-score” value was 0.116.
In the case of GATAGTTA, the “PBM E-score” value is reported as 0.246.
CATGGATC was tested, and the “PBM E-score” value was -0.0378.
For AGTATGCC, the “PBM E-score” value was -0.0524.
For CTAGCTCA, the “PBM E-score” value was -0.118.
In the case of AGGAGCAA, the “PBM E-score” value is reported as -0.0128.
With AGAATTCC the “PBM E-score” value was 0.199.
With AAACATCA the “PBM E-score” value was 0.0937.
AGGTAGGG was tested, and the “PBM E-score” value was 0.0341.
AGACGTTA was tested, and the “PBM E-score” value was -0.139.
For GACCTTGA, the “PBM E-score” value was -0.0154.
ACACTTGG was tested, and the “PBM E-score” value was -0.0242.
With GGTGCCAA the “PBM E-score” value was -0.0457.
For ACTTCGAG, the “PBM E-score” value was 0.059.
For ATCGGCTC, the “PBM E-score” value was 0.014.
With AAGGATGA the “PBM E-score” value was -0.0311.
CATGCACG was tested, and the “PBM E-score” value was -0.0529.
In the case of CACTATTC, the “PBM E-score” value is reported as 0.116.
In the case of CTGGACCA, the “PBM E-score” value is reported as -0.15.
AAGAGATG was tested, and the “PBM E-score” value was -0.135.
In the case of AAGTTCGG, the “PBM E-score” value is reported as 0.248.
In the case of TGTCAGAA, the “PBM E-score” value is reported as -0.0161.
For ATGCAACC, the “PBM E-score” value was 0.0784.
For ACGTTGAA, the “PBM E-score” value was 0.0568.
For GCTACAAA, the “PBM E-score” value was 0.121.
With ATCGACCA the “PBM E-score” value was -0.193.
For CGAGAATC, the “PBM E-score” value was 0.0357.
For ACACAATC, the “PBM E-score” value was 0.129.
GGATTAAC was tested, and the “PBM E-score” value was -0.0263.
For CCCGCCTA, the “PBM E-score” value was -0.00775.
In the case of CGTCTAGC, the “PBM E-score” value is reported as -0.0314.
For AATAAGAC, the “PBM E-score” value was 0.041.
In the case of AAGCCCGA, the “PBM E-score” value is reported as 0.194.
ATGATATC was tested, and the “PBM E-score” value was 0.0323.
With CGCCGCTC the “PBM E-score” value was 0.0133.
CCCCACGC was tested, and the “PBM E-score” value was -0.35.
In the case of ATGAGCCA, the “PBM E-score” value is reported as 0.0415.
ACCCGCAC was tested, and the “PBM E-score” value was -0.0235.
TGATTGCA was tested, and the “PBM E-score” value was 0.0186.
AGGACTCG was tested, and the “PBM E-score” value was -0.295.
GACAAATA was tested, and the “PBM E-score” value was 0.247.
In the case of CAGGGATC, the “PBM E-score” value is reported as -0.24.
In the case of AAATCCCG, the “PBM E-score” value is reported as 0.213.
In the case of AGGATTGC, the “PBM E-score” value is reported as -0.148.
In the case of CAGACGGG, the “PBM E-score” value is reported as -0.194.
With AACATCAG the “PBM E-score” value was 0.0774.
For CACAGGGC, the “PBM E-score” value was -0.188.
CACGGCAA was tested, and the “PBM E-score” value was 0.0279.
CGTGCCCA was tested, and the “PBM E-score” value was -0.149.
With TACGGAAA the “PBM E-score” value was 0.278.
With TACCGACA the “PBM E-score” value was 0.102.
In the case of AAATGGTC, the “PBM E-score” value is reported as -0.0061.
In the case of CGCATTCC, the “PBM E-score” value is reported as -0.284.
With AAAGCCAT the “PBM E-score” value was 0.0644.
With ATCTCAGC the “PBM E-score” value was -0.101.
ACCCTAAC was tested, and the “PBM E-score” value was -0.0232.
GTGAGTGA was tested, and the “PBM E-score” value was -0.0684.
With GACTACAC the “PBM E-score” value was -0.00601.
In the case of GCCAAAGC, the “PBM E-score” value is reported as -0.108.
For AATGATAG, the “PBM E-score” value was 0.251.
With ATCGTTTG the “PBM E-score” value was 0.131.
ATCGCAGA was tested, and the “PBM E-score” value was -0.151.
ACTAAGCG was tested, and the “PBM E-score” value was -0.0189.
CACGGATC was tested, and the “PBM E-score” value was 0.036.
ACCTAAAT was tested, and the “PBM E-score” value was 0.138.
CTAACTTA was tested, and the “PBM E-score” value was 0.0749.
In the case of GCACCTGC, the “PBM E-score” value is reported as -0.0964.
GAACCAGC was tested, and the “PBM E-score” value was -0.0225.
With ATAGTGTG the “PBM E-score” value was 0.0254.
GGTCAGGA was tested, and the “PBM E-score” value was -0.0699.
CTGTTAGA was tested, and the “PBM E-score” value was -0.124.
In the case of CTTCCTAC, the “PBM E-score” value is reported as -0.25.
In the case of GGATAGCA, the “PBM E-score” value is reported as 0.0461.
With GGGTCTAC the “PBM E-score” value was -0.0245.
For CAGGCAAG, the “PBM E-score” value was -0.225.
For CTTCAGTA, the “PBM E-score” value was 0.0951.
With CGCCGCCC the “PBM E-score” value was -0.0965.
In the case of CTGCAGCA, the “PBM E-score” value is reported as -0.153.
For TAAAACCA, the “PBM E-score” value was 0.0167.
For GCATGCAA, the “PBM E-score” value was 0.0686.
ATCTGCGC was tested, and the “PBM E-score” value was -0.245.
ACGCGCTA was tested, and the “PBM E-score” value was -0.0186.
For CCAGGTCG, the “PBM E-score” value was -0.345.
With AAGGTAGG the “PBM E-score” value was 0.132.
TGGTGAAA was tested, and the “PBM E-score” value was 0.0238.
CAGGTCAA was tested, and the “PBM E-score” value was 0.0382.
With GGACGCCC the “PBM E-score” value was -0.171.
With AACGGTCT the “PBM E-score” value was -0.0776.
With AAACACTG the “PBM E-score” value was -0.0265.
For GAGGAAAA, the “PBM E-score” value was 0.178.
For CGATCATA, the “PBM E-score” value was 0.00404.
CCGGTGGA was tested, and the “PBM E-score” value was 0.102.
In the case of AGTGATTG, the “PBM E-score” value is reported as 0.122.
ACGAGTGG was tested, and the “PBM E-score” value was -0.101.
ACGTCGTA was tested, and the “PBM E-score” value was -0.0441.
For ATTCTAGA, the “PBM E-score” value was 0.116.
For GTTAATAA, the “PBM E-score” value was 0.319.
